The values below come from article PMC10668032.

The list shows a part of the results. At the low end of the ranking, values are background and their order means little.

The target of the experiment is SIX1 homeodomain (reference allele) (UniProt Q15475). Description: universal protein binding microarray. The note with it: Universal all-10-mer PBM (8x60K, AMADID 030236), 300 nM GST-tagged protein, Alexa Fluor 488 anti-GST; buffer, salt, pH and temperature not stated; high values mean tight binding; most listed sequences are background and not binding sites; double strand, one strand shown.
For ACAAATCC, the binding signal was 0.16 E-score.
Regarding GATGCAGC, the binding signal is -0.151 E-score.
As for CCACCGCA, the figure is -0.0733 E-score; as for AAAGTTAG, -0.189 E-score.
CCACTGGA: the binding signal was found to be 0.215 E-score.
With ATGACACG, the binding signal stood at 0.289 E-score.
To GTTGTTGA belongs -0.0896 E-score; to CGTTTACC, 0.068 E-score.
In the case of GACAACAA, the binding signal was -0.299 E-score.
As for TAGAACGA, the figure is -0.0488 E-score; as for AGCTTTTC, -0.365 E-score.
As to TCCCTGAA, the binding signal worked out at 0.065 E-score.
For CACATTTC, the binding signal was found to be 0.033 E-score.
As for GATTTACA, the figure is -0.113 E-score.
To AGACCGCT belongs -0.112 E-score; to CATCCGAG, 0.137 E-score; to AGTTGAAA, -0.207 E-score.
To AAGTGCCT belongs -0.32 E-score; to CATACGCG, 0.149 E-score.
As to CTCAAACC, the binding signal was -0.157 E-score.
To CCCACCCA belongs -0.0219 E-score.
Consider GTTCAGCA, for which the binding signal was -0.0857 E-score.
As for TATCGGAA, the figure is 0.368 E-score; as for TTACCTAA, 0.00626 E-score.
In the case of ACAATAGT, the binding signal was -0.00197 E-score.
Turning to CACTTTGG, the binding signal is -0.093 E-score.
To AATTCTTG belongs -0.202 E-score.
For AGCCAGCT, the binding signal is -0.0429 E-score.
To CGTCAGCC belongs 0.00262 E-score; to CCCCCGCG, 0.162 E-score.
As for TAGATCGA, the figure is 0.0916 E-score; as for TATAACGA, 0.155 E-score.
With GAATCTCA, the binding signal worked out at 0.0523 E-score.
As for CTCGATGC, the figure is -0.0181 E-score; as for AGGGCTGG, -0.133 E-score; as for AGCATGAT, 0.2 E-score.
For CATAGCCA, the binding signal was found to be 0.0457 E-score.
As for AAGACAGC, the figure is -0.193 E-score; as for AGCCGCGC, 0.0394 E-score; as for CTTACCGA, 0.104 E-score.
As for CGGTGTCC, the figure is 0.352 E-score; as for GGTCATCA, 0.0463 E-score.
To CAGTATTC belongs 0.0263 E-score; to AAGGACGT, -0.157 E-score.
With ATTCTTCA, the binding signal was -0.0427 E-score.
As for AGAATAAG, the figure is -0.144 E-score.
As for AAGTGCGC, the figure is -0.264 E-score; as for GCCTCACA, -0.129 E-score.
For the sequence CTCCAGTA, the binding signal is 0.0784 E-score.
Regarding GGTAGCAA, the binding signal is -0.166 E-score.
To CACGTGAA belongs -0.0276 E-score; to GAATGAGA, 0.081 E-score; to ACATACCG, 0.162 E-score.
As for AGTTGCCG, the binding signal is -0.252 E-score.
On to ACCCAGGC, for which the binding signal was found to be 0.0595 E-score.
GTTTTGGA: the binding signal is -0.042 E-score.
As to AACGACAT, the binding signal was -0.187 E-score.
As for CCATGCTA, the figure is 0.0644 E-score; as for ACCCAAAA, 0.00116 E-score; as for CCGCGCGG, -0.0933 E-score.
As for ACGATTAG, the figure is -0.0185 E-score; as for ACGAACAA, -0.138 E-score.
CGCAAGTC: the binding signal is -0.149 E-score.
To GAAACTTA belongs -0.188 E-score; to ACAGCACA, -0.0757 E-score.
Turning to ATACGGTA, the binding signal amounted to 0.405 E-score.
Take AGGCGCGC: the binding signal was -0.145 E-score.
As to CCTGTGAC, the binding signal was -0.00424 E-score.
To CCGCGAAG belongs -0.0634 E-score; to CAACGAAC, -0.203 E-score.
To TACCATGA belongs 0.0689 E-score; to CACATAGG, -0.0739 E-score.
For the sequence CATTGTAA, the binding signal is 0.0513 E-score.
As for CTAGGAGA, the figure is 0.00177 E-score; as for TGGAAGAA, -0.104 E-score; as for ACATTTCG, -0.301 E-score.
Regarding GCTAAGCC, the binding signal is -0.18 E-score.
Turning to ATTACGAA, the binding signal was -0.0905 E-score.
To ACAGGTCA belongs -0.248 E-score.
To ATGGATCA belongs 0.383 E-score.
To CCCAAGTC belongs -0.167 E-score.
As to CAGGTATA, the binding signal worked out at 0.276 E-score.
As for GCAGGGCC, the figure is -0.16 E-score; as for AAACGCGC, -0.225 E-score.
To TGCGAGAA belongs 0.0209 E-score.
To CCCACTAC belongs 0.0503 E-score.
As for AACACATA, the binding signal was found to be 0.0344 E-score.
As for CTGCTGTC, the figure is -0.105 E-score; as for AACGAGGA, 0.107 E-score; as for GTGGCCAC, -0.164 E-score.
As for GCCCGGAA, the figure is -0.136 E-score; as for GCAAATAC, -0.151 E-score.
As to CTTAAAGC, the binding signal was -0.0817 E-score.
To ATGTTTAA belongs -0.213 E-score; to GAAGTTGC, -0.204 E-score.
In the case of ATAGTGCG, the binding signal is 0.0774 E-score.
As for GGACAACA, the figure is -0.0797 E-score; as for AGTCTTTG, -0.214 E-score.
In the case of GGGACGTA, the binding signal came out at 0.0511 E-score.
As for GAACTTGA, the figure is 0.0312 E-score; as for CAACCTTC, -0.258 E-score.
For the sequence CAAAGAAA, the binding signal was -0.327 E-score.
To AGATTTGC belongs -0.193 E-score; to GCGTGTCA, 0.117 E-score; to ACTTTTGA, -0.147 E-score.
As for ACGCGTAA, the figure is 0.0077 E-score.
As for AAACTGTA, the figure is -0.0741 E-score.
For the sequence CACGTTCC, the binding signal was -0.0842 E-score.
As for GCCGCAAA, the figure is -0.0861 E-score.
As for TGCAAGAA, the figure is -0.131 E-score; as for TCACTGGA, 0.0123 E-score; as for AGGGCTGA, -0.0752 E-score.
To ACAAACTA belongs -0.0665 E-score; to GACAAGAC, -0.135 E-score.
Turning to CCCGAGCA, the binding signal was -0.036 E-score.
In the case of AGCCCGAT, the binding signal worked out at 0.263 E-score.
As for ACTAATAC, the figure is 0.225 E-score.
As to AAGGAGTC, the binding signal is -0.191 E-score.
With GACCGGTC, the binding signal was -0.11 E-score.
As for AAGGCCCA, the figure is -0.34 E-score; as for GAACTTAC, -0.165 E-score.
On to GACTAGTC, for which the binding signal was -0.154 E-score.
As for TCAATTGA, the figure is -0.0339 E-score; as for CATACACG, 0.157 E-score.
To AACTAGCG belongs -0.145 E-score; to CAGCAACC, -0.235 E-score.
As for AGTAATGA, the figure is 0.0889 E-score; as for ACATAATA, 0.248 E-score; as for GTTATTGA, 0.0127 E-score.
Take GCCACCCA: the binding signal was -0.225 E-score.
As for CCAAAGGA, the figure is -0.154 E-score; as for CCTGTATA, 0.219 E-score; as for GCGGTGAA, -0.05 E-score.
To AGAGCACC belongs -0.0661 E-score; to AAGTACGG, -0.221 E-score; to GCGTGAGA, 0.132 E-score.
To GCAGGAAA belongs -0.153 E-score; to CAACACTA, -0.0617 E-score; to ACTAGAAT, -0.0461 E-score.
In the case of CTCGCTCA, the binding signal worked out at 0.0131 E-score.
Regarding CGGCCCGC, the binding signal came to 0.0147 E-score.
With AAGAGGTA, the binding signal turned out to be 0.187 E-score.
To AAATTAAA belongs -0.229 E-score; to ACCATCCG, 0.23 E-score; to ATGTGACC, -0.146 E-score.
As for GCTTCCCA, the figure is -0.0472 E-score; as for AGGATCCA, 0.346 E-score.
As for ATCAGGAC, the figure is 0.149 E-score; as for CTGAATCC, -0.0016 E-score.
Regarding ATGAGATC, the binding signal was 0.34 E-score.
To ACATATAC belongs 0.244 E-score; to GAGCTGTA, -0.147 E-score; to ATTTACTG, -0.209 E-score.
With CCCGCTTA, the binding signal is -0.092 E-score.
As for CAATTCGA, the figure is -0.134 E-score; as for ACAGGCGA, -0.0237 E-score.
As for CCCCCACG, the figure is -0.0276 E-score; as for CCTTAAAG, -0.043 E-score.
With ACTTCAGG, the binding signal was -0.114 E-score.
As for ACGTCACG, the figure is -0.0848 E-score.
As for CATCTTGC, the figure is 0.0243 E-score; as for GTTGCTTA, -0.134 E-score.
To AACTCAAT belongs -0.0503 E-score.
As for GCTGAATA, the binding signal is -0.156 E-score.
With AACCAATG, the binding signal was -0.119 E-score.
To AAGTTGTC belongs -0.0837 E-score; to ACCAGAGA, 0.0419 E-score; to GAGAATGA, 0.0535 E-score.
To CAAGTAAA belongs -0.0914 E-score; to AACGTCTG, -0.125 E-score; to AACAGACA, -0.0522 E-score.
Turning to ATGTTGAG, the binding signal came out at 0.0841 E-score.
As for GGCATTAC, the figure is -0.194 E-score.
As to ATGGTTGC, the binding signal is -0.147 E-score.
As for TACTTGCA, the figure is -0.112 E-score.
To AAATGGCA belongs -0.108 E-score; to AGAATGGC, -0.31 E-score.
To ATTGTTCG belongs -0.0335 E-score.
Turning to GCAGACCC, the binding signal was -0.0239 E-score.
Turning to AACAATAC, the binding signal was found to be 0.255 E-score.
As for AGTGAAGC, the figure is -0.186 E-score; as for CTATTCAG, -0.00496 E-score.
To CGTTGCGA belongs -0.152 E-score; to GTCACGTA, -0.123 E-score; to CGTGAGAG, -0.0489 E-score.
To ATCCTATC belongs 0.375 E-score; to AGCTCCGA, -0.121 E-score; to GCAGTGTA, 0.076 E-score.
On to AAGTCGAT, for which the binding signal is -0.0496 E-score.
As for AAACTTAT, the figure is -0.192 E-score; as for CCCTTGGC, -0.139 E-score.
As for ACAACTTC, the figure is -0.18 E-score; as for CCAACCCA, -0.0438 E-score; as for CACCTGAC, 0.079 E-score.
As for TATGCGCA, the figure is -0.03 E-score; as for ATCGACGA, -0.0174 E-score; as for ACGAGTCG, 0.0298 E-score.
On to ACGACCTG, for which the binding signal is -0.0928 E-score.
On to GCCGACAC, for which the binding signal is 0.11 E-score.
As for AAGACCAG, the figure is -0.192 E-score; as for AACCAAGT, -0.142 E-score.
As for ACGCAAGG, the figure is -0.0872 E-score; as for ACAGGCTC, 0.0633 E-score; as for GGTTTCAC, 0.121 E-score.
To ATCTGCCA belongs 0.187 E-score; to AGGGTAAT, 0.205 E-score; to AGCGGCCA, -0.307 E-score.
In the case of ACAGTACT, the binding signal is -0.049 E-score.
To CAGATCTC belongs 0.241 E-score; to CAAGGCAA, -0.162 E-score; to GAACGCCA, -0.0986 E-score.
As for GCTTCGGA, the figure is -0.0452 E-score; as for AGAATAAA, -0.0869 E-score; as for TTGAAAAA, -0.124 E-score.
For ACACAGGC, the binding signal was -0.092 E-score.
As for GAACGTCA, the figure is -0.248 E-score.
As for CTACCGAC, the figure is -0.196 E-score.
To GAAATAAC belongs -0.111 E-score; to GATTGGAC, -0.184 E-score.
